Measured values taken from PubChem BioAssay AID1347417 (National Center for Advancing Translational Sciences (NCATS), 2020).
The whole screen tested about 120,000 compounds, of which about 5,300 (4.4%) were called active. The inconclusive results got no clear call from the source; some entries with a clear call stand among them for comparison. The call rests on the fitted dose curve; in most records, active means well fitted inhibition curve with a large enough effect; inconclusive means small, poorly fitted or top-dose-only effect; inactive means no such curve, though single readings can be large or run the other way. Potencies beside an inconclusive call are fits to weak or partial responses and may not hold up.

assay: qHTS Primary assay for Inhibitors of Plasmodium falciparum Dd2 growth in vitro; further: nearly all actives have a fitted effect of over 65% in size;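 on activity, negative = inhibition: plate controls were DMSO vehicle for no effect and reference drug for full effect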; conditions: P. falciparum Dd2 growth, SYBR Green, 72 h; activity, negative = inhibition: at 28.9 µM (top of the series) unless noted; series mostly up to 28.9 µM
How it was run: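 Readout: SYBR Green fluorescence, 485 nm excitation, 535 nm emission, after ~16 h lysis at 37C. Before that, Dd2-infected red cells (2.5% hematocrit) grew 72 h with compound, 29 uM top final concentration.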
Potency means the concentration at half of the fitted maximal effect; tags describe the fitted curve by direction and shape.

Structure (SMILES) | Potency | activity, negative = inhibition | outcome
Cc1cc(C)cc(NC(=O)Cc2csc(COc3cccc(C)c3)n2)c1 | inconclusive: 2.51 µM [inhibitor, full curve, poor fit] |  | 
Cc1cnc(CC2CCCN(C(=O)Cc3ccccc3)C2)n1C(C)C (centres undefined) | active: 4.47 µM |  | 
O=C(NCC(c1cccnc1)N1CCN(c2ccccc2F)CC1)c1ccc(F)cc1 (centres undefined) | inconclusive: 17.8 µM [inhibitor, single point] |  | 
COC(=O)c1cccc(-c2nc(C3CC(=O)N(c4ccc(F)cc4)C3)no2)c1 (centres undefined) |  | inactive: 3.05% | 
CCN(CC)Cc1nc(C2(O)CCN(Cc3ccccc3F)CC2)cs1 | inconclusive: 31.6 µM [inhibitor, single point] |  | 
COc1cccc(CC(=O)N2CCCN(C)c3ccccc32)c1 | inconclusive: 17.8 µM [inhibitor, single point] |  | 
CSCCC(NS(=O)(=O)c1ccc2c(c1)oc(=O)n2C)C(=O)Nc1ccc(F)c(Cl)c1 (centres undefined) |  | inactive: 9.74% | 
COc1ccc(NC(=O)c2c(NCc3cccc(F)c3)sc3c2CCC3)c(OC)c1 | inconclusive: 10 µM [inhibitor, single point] |  | 
COc1ccc(OC)c(CNC(=O)c2c(C)oc3ncn(CC(C)C)c(=O)c23)c1 | active: 10 µM |  | 
COc1cccc2sc(N(Cc3cccnc3)C(=O)c3ccco3)nc12 | inconclusive: 17.8 µM [inhibitor, single point] |  | 
CC1(c2ccccc2)N(Cc2ccccc2)C(=O)OC12CCN(C(=O)C1CCOCC1)CC2 (centres undefined) | inconclusive: 10 µM [inhibitor, partial curve, poor fit] |  | 
Cc1nn2c(c1-c1ccccc1-c1ccccc1)N(C(=O)Cc1ccccn1)CCC2 | inconclusive: 15.8 µM [inhibitor, single point] |  | 
O=c1c2c(CO)c(-c3ccc(F)cc3)nn2ccn1Cc1ccccc1Cl | inconclusive: 17.8 µM [inhibitor, single point] |  | 
C=CCNC(=O)C1CC(c2ccccc2F)=NO1 (centres undefined) |  | inactive: 8.63% | 
CC(C)CCN1CCn2c(nn(-c3ccc(C(F)(F)F)cc3)c2=O)C1 | inconclusive: 8.91 µM [inhibitor, partial curve, poor fit] |  | 
c1ccc(NCC2CN(Cc3ccccn3)CC23CN(c2ccccc2)C3)cc1 (centres undefined) | inconclusive: 2.24 µM [inhibitor, full curve, poor fit] |  | 
Cc1cc(-c2ccc(S(=O)(=O)Nc3cc(Cl)ccc3C)s2)on1 | inconclusive: 0.0501 µM [inhibitor, full curve, poor fit] |  | 
COc1ccc(CCNC(=O)c2cc3c(-c4ccc(OC)c(OC)c4)nn(C)c3s2)cc1OC | inconclusive: 17.8 µM [inhibitor, single point] |  | 
CN(C)c1nccnc1OC1CCN(C(=O)NCCc2ccccc2)C1 (centres undefined) | inconclusive: 20 µM [inhibitor, single point] |  | 
Cc1ccc(-c2cccc(CN)c2)cc1Cl | active: 11.2 µM |  | 
O=C(C1CCCC1)N1CC2(CCN(CC3CCCCC3)C2)Cc2ccccc21 (centres undefined) | active: 11.2 µM |  | 
Cc1ccc(C(=O)N2CCC3(CC2)NC(=O)N(c2ccc(F)cc2)N3)c(C)c1 | inconclusive: 12.6 µM [inhibitor, single point] |  | 

Structure (SMILES) | Potency | activity, negative = inhibition | outcome
COC(=O)c1ccc(Cl)cc1NC(=O)NC(C)c1c(-n2cccc2)sc(C)c1C (centres undefined) | inconclusive: 17.8 µM [inhibitor, single point] |  | 
Oc1ccccc1CN1CCC(O)(c2csc(CN3CCc4ccccc4C3)n2)CC1 | inconclusive: 1.41 µM [inhibitor, partial curve, poor fit] |  | 
Cc1cc2c(cc3c(SCc4cccc(F)c4)nnc(C)n32)o1 | inconclusive: 17.8 µM [inhibitor, single point] |  | 
N#Cc1ccc(C(=O)N2CCC[C@H]2c2nc(-c3ccccc3)no2)cc1 | inconclusive: 15.8 µM [inhibitor, single point] |  | 
Cc1cccc(C(=O)N2CCC(N3CCN(Cc4ccc(F)cc4)C(=O)C3=O)CC2)c1 |  | inactive: 17% | 
COc1ccc(NC(=O)C2CCN(C(=O)c3nnn4c3COC(c3ccc(C)cc3)C4)CC2)cc1 (centres undefined) |  |  | inactive
COc1ccc(C(=O)N[C@@H]2CCC[C@@H]2C(=O)NCCCN(C)C)cn1 | inconclusive: 0.891 µM [inhibitor, partial curve] |  | 
O=C(CCc1ccccc1)N1CCc2c([nH]c3ccccc23)C1c1ccc(Cl)cc1 (centres undefined) | inconclusive: 17.8 µM [inhibitor, single point] |  | 
CCCCNC(=O)N1CCC2(CC1)C(=O)N(CC(=O)NC(C)c1ccccc1)CN2c1ccccc1 (centres undefined) |  |  | inactive
CC(C)NC(=O)c1nc(-c2cccc(F)c2)c2cnccn12 | inconclusive: 2.51 µM [inhibitor, full curve, poor fit] |  | 
CS(=O)(=O)N(C1CCOCC1)C1CN(C(=O)c2n[nH]c3ccccc23)C1 |  | inactive: 8.47% | 
CN1CCN(C2(CNC(=O)c3ccc([N+](=O)[O-])cc3)CCCCC2)CC1 | inconclusive: 6.31 µM [inhibitor, partial curve] |  | 
CC1=C[C@@H](CNC(=O)CCCC(=O)O)[C@H](C(C)C)C[C@H]1Cc1nc2ccc(C)cc2[nH]1 | inconclusive: 31.6 µM [inhibitor, single point] |  | 
O=C(C1CCCCC1)N(Cc1cccnc1)c1nc2c(F)cc(F)cc2s1 | inconclusive: 17.8 µM [inhibitor, single point] |  | 
COc1ccc(OC)c(NC(=O)c2c(NCc3ccc(OC)c(OC)c3)sc3c2CCC(C)C3)c1 (centres undefined) | active: 5.62 µM |  | 
O=C(c1ccccc1F)N1CCC2(CC1)C(=O)NCN2Cc1ccc(Cl)cc1 | inconclusive: 2.82 µM [inhibitor, single point] |  | 
Nc1c(C(=O)Nc2cccc(F)c2)sc2nc(-c3cccs3)ccc12 | inconclusive: 10 µM [inhibitor, single point] |  | 
O=C1CC2(CCN(Cc3cccc(O)c3)CC2)CN1Cc1ccc(F)c(F)c1 | inconclusive: 7.94 µM [inhibitor, partial curve, poor fit] |  | 
CCOc1ccc(-c2nc(C3CC(=O)N(c4ccc(F)c(Cl)c4)C3)no2)cc1 (centres undefined) |  | inactive: 20.4% | 
O=C1Nc2ccccc2C12CN(Cc1cncs1)C2 |  | inactive: 4.85% [at 44.1 µM] | 
COCc1noc([C@@H]2CC(F)(F)CN2C(=O)Cc2cccc(F)c2)n1 |  | inactive: -13.7% | 
O=C1OC[C@@H]2CCN(Cc3ccc(F)c(F)c3)Cc3ccc(F)cc3N12 | inconclusive: 22.4 µM [inhibitor, single point] |  | 

Structure (SMILES) | Potency | activity, negative = inhibition | outcome
COc1cccc(NC(=O)N2CCC(c3cc(-c4cccc(C)c4)n[nH]3)CC2)c1 | inconclusive: 3.16 µM [inhibitor, partial curve, poor fit] |  | 
O=C(C[C@@H]1CCNC[C@@H]1Cc1cc(CC2CCCCC2)on1)N1CCOCC1 | inconclusive: 10 µM [inhibitor, partial curve, poor fit] |  | 
C#CCNC[C@@H]1C=C(C)[C@H](Cc2nnc(-c3ccccc3F)o2)C[C@H]1C(C)C | inconclusive: 2.24 µM [inhibitor, full curve, poor fit] |  | 
CCc1ocnc1C(=O)N1CCC(C2CCN(Cc3cccc(F)c3F)CC2)C1 (centres undefined) | inconclusive: 17.8 µM [inhibitor, single point] |  | 
COc1ccc(CC(=O)Nc2ccc3nc(Nc4cccc(Cl)c4)cc(C)c3c2)cc1 | inconclusive: 11.2 µM [inhibitor, single point] |  | 
Cc1ccc(Nc2c(-c3ccc(N4CCOCC4)cc3)nc3c(C)cccn23)cc1 | inconclusive: 10 µM [inhibitor, single point] |  | 
CC1Oc2ccc(NC(=O)C3CC3)cc2CN(CCc2ccc(F)cc2)C1=O (centres undefined) | inconclusive: 7.08 µM [inhibitor, partial curve] |  | 
COc1cccc([S+](=O)([O-])N2CCc3nc(C(C)C)nc(-c4ccc(Cl)cc4)c3CC2)c1 | inconclusive: 10 µM [inhibitor, single point] |  | 
CS(=O)(=O)c1ccc(CN2C[C@@H](F)[C@@H](OCc3nc4ccc(F)cc4[nH]3)C2)cc1 | inconclusive: 20 µM [inhibitor, single point] |  | 
C[S+](=O)([O-])N1Cc2ccccc2CC2(CCCN(CC3CCCC3)C2)C1 (centres undefined) | inconclusive: 7.08 µM [inhibitor, partial curve] |  | 
O=C(CSc1nc2c([nH]c3ccccc32)c(=O)n1-c1ccccc1)c1ccc(Cl)cc1 |  | inactive: 30% | 
C=Cc1ccc(Cn2c(C(=O)O)c(CNCCc3ccccc3)c3ccc(C)cc32)cc1 | inconclusive: 17.8 µM [inhibitor, single point] |  | 
Cc1ccc(S(=O)(=O)Cc2noc([C@@H]3C[C@@H](O)CN3CC3CCCCC3)n2)cc1 |  |  | inactive [at 44.1 µM]
Cc1noc([C@@H]2CN(C(=O)c3ccoc3C)C[C@H]2CO)n1 |  |  | inactive
CNC(=O)CCn1ncc2cc(OCc3ccccc3-c3c(Cl)cccc3OC)ccc21 | active: 3.98 µM |  | 
Cc1ccsc1C(=O)N1CCCC(CN2CCCC2)CC1 (centres undefined) | inconclusive: 3.55 µM [inhibitor, partial curve, poor fit] |  | 
Cc1cc(C)c(CNC(=O)c2nc(-c3ccc(CO)cc3)cc3c2ccn3C(C)C)c(=O)[nH]1 | inconclusive: 1.41 µM [inhibitor, partial curve, poor fit] |  | 
COC(=O)[C@H](NC(=O)[C@@H]1C[C@H](NC(=O)NC(C)C)CN1C(=O)c1cccn1C)C(C)C |  | inactive: 1.76% | 
COc1cc(-c2onc(C)c2C(=O)N2CCC(Cc3ccc4c(c3)OCO4)CC2)cc(OC)c1OC | inconclusive: 7.08 µM [inhibitor, partial curve, poor fit] |  | 
COc1cccc(NC(=O)Cn2c(=O)n(Cc3ccc(C(=O)NCc4ccc5c(c4)OCO5)cc3)c(=O)c3ccccc32)c1 | inconclusive: 8.91 µM [inhibitor, partial curve, poor fit] |  | 
